No constants are given. Whether binding was seen depends on the method and setting. Binding seen in cells or lysates may run through a third protein. Some binding calls cover weakened binding; strength is not graded here. Sequences can lack the tags named with a protein.

By UniProt entry, the sequences of proteins in these tests, tags left out. Residues count along the entry.
UniProt Q99K41, residues 22-1017: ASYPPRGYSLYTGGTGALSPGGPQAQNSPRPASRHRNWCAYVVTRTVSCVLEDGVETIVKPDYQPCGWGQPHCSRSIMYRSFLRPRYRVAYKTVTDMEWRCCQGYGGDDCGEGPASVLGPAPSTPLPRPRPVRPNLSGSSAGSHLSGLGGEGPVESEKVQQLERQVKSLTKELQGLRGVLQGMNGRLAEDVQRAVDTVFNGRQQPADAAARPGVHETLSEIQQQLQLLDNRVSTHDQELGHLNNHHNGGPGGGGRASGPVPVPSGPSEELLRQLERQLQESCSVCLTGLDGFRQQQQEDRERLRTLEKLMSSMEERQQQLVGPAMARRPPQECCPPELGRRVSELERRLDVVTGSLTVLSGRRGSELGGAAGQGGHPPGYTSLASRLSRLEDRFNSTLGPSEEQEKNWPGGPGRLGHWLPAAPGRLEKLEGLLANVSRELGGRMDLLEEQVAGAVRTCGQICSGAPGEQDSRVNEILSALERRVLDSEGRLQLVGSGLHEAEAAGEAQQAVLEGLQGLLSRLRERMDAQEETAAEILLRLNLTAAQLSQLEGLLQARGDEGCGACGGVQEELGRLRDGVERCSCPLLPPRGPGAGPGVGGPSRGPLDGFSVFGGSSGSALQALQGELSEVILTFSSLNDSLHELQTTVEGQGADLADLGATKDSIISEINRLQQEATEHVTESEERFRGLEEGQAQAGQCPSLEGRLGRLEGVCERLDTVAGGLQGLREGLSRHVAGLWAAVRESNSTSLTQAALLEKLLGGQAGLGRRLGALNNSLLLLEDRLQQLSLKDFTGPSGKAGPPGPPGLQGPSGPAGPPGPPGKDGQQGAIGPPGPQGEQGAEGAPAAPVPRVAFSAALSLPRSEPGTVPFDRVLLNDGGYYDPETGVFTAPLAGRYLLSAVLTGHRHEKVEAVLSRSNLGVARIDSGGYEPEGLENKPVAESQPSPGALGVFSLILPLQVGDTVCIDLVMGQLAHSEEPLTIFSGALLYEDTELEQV
UniProt Q8K482, residues 34-1074: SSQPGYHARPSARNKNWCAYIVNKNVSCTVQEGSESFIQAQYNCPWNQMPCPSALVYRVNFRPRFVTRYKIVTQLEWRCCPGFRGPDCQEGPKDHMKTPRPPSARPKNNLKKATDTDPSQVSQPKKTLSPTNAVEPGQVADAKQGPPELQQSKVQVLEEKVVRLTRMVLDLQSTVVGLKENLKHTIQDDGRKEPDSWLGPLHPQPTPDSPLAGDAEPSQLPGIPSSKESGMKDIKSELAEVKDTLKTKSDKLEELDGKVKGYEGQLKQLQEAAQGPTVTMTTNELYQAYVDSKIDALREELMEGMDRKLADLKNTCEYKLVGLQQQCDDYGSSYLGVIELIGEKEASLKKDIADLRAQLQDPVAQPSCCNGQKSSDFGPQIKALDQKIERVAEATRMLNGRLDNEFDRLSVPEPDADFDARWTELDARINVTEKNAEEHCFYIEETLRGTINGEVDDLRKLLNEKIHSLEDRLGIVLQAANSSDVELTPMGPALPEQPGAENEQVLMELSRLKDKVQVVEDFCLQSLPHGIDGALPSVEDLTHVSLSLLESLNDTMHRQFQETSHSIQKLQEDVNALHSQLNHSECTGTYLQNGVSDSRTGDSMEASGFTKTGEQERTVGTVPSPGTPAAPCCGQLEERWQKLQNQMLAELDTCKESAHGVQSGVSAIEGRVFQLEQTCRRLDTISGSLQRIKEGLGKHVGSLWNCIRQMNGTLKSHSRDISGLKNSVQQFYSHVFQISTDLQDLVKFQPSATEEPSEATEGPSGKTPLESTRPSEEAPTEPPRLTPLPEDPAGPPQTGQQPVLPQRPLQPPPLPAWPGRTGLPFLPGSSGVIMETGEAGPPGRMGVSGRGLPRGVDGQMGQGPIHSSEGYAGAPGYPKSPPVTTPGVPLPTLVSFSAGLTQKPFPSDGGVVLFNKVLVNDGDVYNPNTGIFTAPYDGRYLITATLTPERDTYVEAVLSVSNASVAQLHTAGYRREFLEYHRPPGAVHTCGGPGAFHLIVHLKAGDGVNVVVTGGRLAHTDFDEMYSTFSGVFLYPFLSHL

This is an account of results in PMC7501263.

What all share (assay): pull-down; purified recombinant Strep-tagged fibulin-1, fibulin-2 or nidogen-1 mixed with media of transfected HEK293 cells with HA-tagged EMILINs, 2 h at 4 °C; precipitation with Strep-Tactin Sepharose; washed with 50 mM Tris-HCl pH 7.5, 150 mM NaCl, 2 mM EDTA, 1% Triton X-100; western blot with anti-HA and anti-Strep; only the target purified
(In general: Immunoblotting shows a protein as a band on a membrane.)

Assay [1] deals with T1, Recombinant murine C-terminally 2xStrepII tagged full length fibulin-2 (murine) (UniProt P37889).
T1 sequence: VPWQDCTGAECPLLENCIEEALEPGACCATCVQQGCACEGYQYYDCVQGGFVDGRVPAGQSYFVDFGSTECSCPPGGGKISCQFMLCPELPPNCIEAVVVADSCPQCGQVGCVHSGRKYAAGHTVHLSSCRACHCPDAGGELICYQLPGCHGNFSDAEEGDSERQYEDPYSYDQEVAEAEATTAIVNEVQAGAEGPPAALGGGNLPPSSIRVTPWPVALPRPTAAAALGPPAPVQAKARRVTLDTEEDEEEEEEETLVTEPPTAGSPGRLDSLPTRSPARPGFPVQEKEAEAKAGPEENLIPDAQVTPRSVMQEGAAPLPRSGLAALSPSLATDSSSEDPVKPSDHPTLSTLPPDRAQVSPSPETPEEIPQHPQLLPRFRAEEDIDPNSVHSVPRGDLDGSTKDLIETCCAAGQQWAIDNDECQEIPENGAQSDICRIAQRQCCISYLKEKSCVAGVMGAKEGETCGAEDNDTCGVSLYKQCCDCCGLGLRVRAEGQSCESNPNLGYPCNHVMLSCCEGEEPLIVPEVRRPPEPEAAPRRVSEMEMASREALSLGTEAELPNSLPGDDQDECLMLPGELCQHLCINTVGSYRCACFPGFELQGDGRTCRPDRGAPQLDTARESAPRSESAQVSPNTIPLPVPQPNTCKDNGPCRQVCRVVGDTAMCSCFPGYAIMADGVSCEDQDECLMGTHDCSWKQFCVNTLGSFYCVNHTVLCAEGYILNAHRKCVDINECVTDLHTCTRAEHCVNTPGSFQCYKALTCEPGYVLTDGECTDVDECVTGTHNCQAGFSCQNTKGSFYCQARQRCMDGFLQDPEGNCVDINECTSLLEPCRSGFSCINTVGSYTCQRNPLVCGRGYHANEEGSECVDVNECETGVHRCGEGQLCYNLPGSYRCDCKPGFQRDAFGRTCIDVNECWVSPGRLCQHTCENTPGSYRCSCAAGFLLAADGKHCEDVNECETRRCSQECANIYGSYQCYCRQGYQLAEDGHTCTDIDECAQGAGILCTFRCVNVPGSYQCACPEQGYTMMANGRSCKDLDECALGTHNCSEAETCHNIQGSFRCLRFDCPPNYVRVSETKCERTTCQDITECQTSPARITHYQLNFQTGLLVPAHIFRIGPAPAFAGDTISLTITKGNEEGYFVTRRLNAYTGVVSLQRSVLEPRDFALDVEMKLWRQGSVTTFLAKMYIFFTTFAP

In assay [2] the target is T2, Recombinant murine C-terminally 2xStrepII tagged full length nidogen-1 (murine) (UniProt P10493).
T2 sequence: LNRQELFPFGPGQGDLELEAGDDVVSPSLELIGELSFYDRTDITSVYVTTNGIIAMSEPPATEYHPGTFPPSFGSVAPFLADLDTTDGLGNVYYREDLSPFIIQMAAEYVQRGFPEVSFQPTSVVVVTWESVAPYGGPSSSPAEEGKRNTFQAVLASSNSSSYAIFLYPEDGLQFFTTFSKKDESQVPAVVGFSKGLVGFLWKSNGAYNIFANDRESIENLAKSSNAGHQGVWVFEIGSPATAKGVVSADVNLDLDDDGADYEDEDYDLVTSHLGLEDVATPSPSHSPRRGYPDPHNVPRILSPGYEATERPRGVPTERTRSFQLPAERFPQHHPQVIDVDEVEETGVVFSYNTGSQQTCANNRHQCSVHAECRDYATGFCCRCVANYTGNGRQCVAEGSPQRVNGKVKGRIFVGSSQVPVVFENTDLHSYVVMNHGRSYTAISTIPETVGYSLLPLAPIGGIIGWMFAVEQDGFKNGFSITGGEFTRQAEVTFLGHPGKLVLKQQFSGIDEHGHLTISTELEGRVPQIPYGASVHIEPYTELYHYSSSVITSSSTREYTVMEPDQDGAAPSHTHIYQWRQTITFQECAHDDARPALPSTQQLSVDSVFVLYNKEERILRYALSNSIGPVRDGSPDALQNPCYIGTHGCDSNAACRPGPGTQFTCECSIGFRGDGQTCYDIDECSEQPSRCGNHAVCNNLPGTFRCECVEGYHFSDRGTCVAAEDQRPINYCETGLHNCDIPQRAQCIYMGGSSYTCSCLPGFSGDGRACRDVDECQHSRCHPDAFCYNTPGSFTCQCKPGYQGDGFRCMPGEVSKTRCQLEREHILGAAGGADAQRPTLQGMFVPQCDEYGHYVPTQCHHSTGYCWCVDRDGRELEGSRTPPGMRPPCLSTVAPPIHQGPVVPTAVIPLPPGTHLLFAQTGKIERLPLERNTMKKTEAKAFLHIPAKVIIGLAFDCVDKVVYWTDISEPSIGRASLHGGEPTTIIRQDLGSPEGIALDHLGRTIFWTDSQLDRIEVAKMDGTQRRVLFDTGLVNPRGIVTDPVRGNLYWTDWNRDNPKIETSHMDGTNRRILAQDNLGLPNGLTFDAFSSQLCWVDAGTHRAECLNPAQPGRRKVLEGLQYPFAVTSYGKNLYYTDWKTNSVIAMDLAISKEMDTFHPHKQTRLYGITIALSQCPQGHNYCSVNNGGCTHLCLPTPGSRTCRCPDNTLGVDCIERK

Assay [3] has as its target T3, Recombinant murine C-terminally 2xStrepII tagged full length fibulin-1 (murine) (UniProt Q08879).
T3 sequence: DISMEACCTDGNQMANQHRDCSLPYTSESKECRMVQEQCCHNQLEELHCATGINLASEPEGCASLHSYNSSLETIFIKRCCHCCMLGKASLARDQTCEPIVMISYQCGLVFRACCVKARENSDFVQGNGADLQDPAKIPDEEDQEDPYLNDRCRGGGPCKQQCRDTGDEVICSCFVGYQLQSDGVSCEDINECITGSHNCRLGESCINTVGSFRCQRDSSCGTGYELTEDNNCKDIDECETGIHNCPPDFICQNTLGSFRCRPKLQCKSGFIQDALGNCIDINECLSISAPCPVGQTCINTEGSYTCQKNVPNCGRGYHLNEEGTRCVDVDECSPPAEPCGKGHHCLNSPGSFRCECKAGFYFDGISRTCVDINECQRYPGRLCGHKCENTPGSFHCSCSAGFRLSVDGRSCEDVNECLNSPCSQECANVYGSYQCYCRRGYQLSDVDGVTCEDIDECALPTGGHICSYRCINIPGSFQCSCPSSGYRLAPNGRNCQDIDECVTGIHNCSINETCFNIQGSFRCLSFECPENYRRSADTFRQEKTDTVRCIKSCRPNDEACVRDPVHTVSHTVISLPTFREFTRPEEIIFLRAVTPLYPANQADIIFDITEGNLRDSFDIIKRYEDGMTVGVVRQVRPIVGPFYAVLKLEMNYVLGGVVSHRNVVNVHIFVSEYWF

Consider “EMILIN-1, full length murine, C-terminal HA tag (from UniProt Q99K41 22-1017)”, for which the binding entry was “binds” in assay [1] and “no binding” in assay [2].

On to “EMILIN-2, full length murine, C-terminal HA tag (from UniProt Q8K482 34-1074)”, for which the binding result is “binds” in assay [1] and “no binding” in assay [2].

B1: EMILIN-3, full length murine, C-terminal HA tag (protein, UniProt P59900 22-758)
chain: KGTPLLARPAQPSASRYSLYTTGWRPRLRPGPHKSLCAYVVHRNVTCVLQEGAESYIKAEYRNCGWGPNCPSTVRYRTVFRPRYKIGYKTVTDLAWRCCPGLTGESCPEHLTDHGATPPHQEPEPQIPLGQLGPGPRPSPYSREAPRPRGRKGQGPFGERLEQRLSQAYGTLSGLVASHENPNRITGDSRAPVVPIGFGVIPEGLVAPEDRGRGPLIPPLSEILSKVTEVSNTLQTKVQLLDEVRGLALGHEAHLQRLREAPPSPLTSLALLEEYVDQRLQRLWGSLLDGFEQKLQGVQSECDLRVQEVRQQCEEGQAASQRLHQSLDGRELALRRELSQLGTQLQGLTLTGGGTCCSQLALISARVDSLERNLQAVTETQGGPGTLAADELARLSAAMLQGGVDGLLEGLETINGTENGARGCCLRMEVGGWGVGGFGSTLEQRVQSLEERLATLTGELSPESAIPDRSARPLVHSELAVLEQRLVSLETSCTPSTTTAILDNLVAEVKAWQSRSEALLHQVARHTALLQQLNGTVAEVQGQLAEGTGSSLQGEITLLKVNLNSVSKSLTGLSDSVSQYSDAFSAANTSLDERERRVEAEVHTIQEQISSQGSRLQAGHRQVLNLRGELEQLKAGMANVARGLSRCRDTAQELQHTVGHFDQRVAQVEGACERLGLLATHLNSLPTEQLRSREGLWGHIDKLNHTLAQHTQDIARLRDDLLDCRAQLAEVRPGRAD
Turning to B1, the binding result in assay [3] and in assay [1] was “binds” each time.
